Experimental data taken from PMC4336329 (PLoS ONE, 2015).
Among all 310,000 compounds or so, about 2,200 (0.71%) showed an effect of 50% or more. Effects have a minus sign here. The list shows a part of the results.

biological target: human ether-à-go-go-related gene (hERG) potassium channel (human, UniProt Q12809); experiment: primary screen, population patch clamp on CHO cells stably expressing hERG
Sequence (Q12809 whole entry, looked up): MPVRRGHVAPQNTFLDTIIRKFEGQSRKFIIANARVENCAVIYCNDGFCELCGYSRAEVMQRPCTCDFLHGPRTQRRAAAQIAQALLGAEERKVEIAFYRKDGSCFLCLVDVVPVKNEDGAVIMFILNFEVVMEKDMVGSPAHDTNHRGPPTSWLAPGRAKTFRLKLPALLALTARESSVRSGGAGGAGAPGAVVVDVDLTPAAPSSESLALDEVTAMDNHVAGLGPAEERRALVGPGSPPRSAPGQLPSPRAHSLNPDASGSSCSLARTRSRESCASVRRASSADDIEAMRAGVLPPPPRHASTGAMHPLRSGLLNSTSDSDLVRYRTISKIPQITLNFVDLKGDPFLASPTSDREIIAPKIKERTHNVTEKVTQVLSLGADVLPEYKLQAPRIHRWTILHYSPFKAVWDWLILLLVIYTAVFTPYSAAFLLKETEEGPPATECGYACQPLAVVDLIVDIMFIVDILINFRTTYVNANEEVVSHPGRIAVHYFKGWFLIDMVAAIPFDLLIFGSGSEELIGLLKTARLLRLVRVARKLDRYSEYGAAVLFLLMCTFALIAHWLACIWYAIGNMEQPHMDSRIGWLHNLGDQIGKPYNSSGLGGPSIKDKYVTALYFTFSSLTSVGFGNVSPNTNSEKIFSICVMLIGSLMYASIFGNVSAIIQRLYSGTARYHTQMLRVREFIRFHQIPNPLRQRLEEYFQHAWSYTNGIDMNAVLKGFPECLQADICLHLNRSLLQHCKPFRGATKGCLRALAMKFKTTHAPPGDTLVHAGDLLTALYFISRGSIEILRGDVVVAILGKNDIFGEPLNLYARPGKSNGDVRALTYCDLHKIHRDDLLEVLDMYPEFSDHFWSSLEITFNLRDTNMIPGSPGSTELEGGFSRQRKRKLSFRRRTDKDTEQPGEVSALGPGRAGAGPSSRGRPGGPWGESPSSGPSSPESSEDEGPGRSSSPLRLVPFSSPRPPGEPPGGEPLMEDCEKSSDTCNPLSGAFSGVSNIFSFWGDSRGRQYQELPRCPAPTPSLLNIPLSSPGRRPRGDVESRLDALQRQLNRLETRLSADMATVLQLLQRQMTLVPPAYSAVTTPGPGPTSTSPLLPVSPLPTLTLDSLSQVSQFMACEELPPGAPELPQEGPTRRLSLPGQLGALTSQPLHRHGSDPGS

Structure (SMILES) | hERG current change (%, negative = inhibition) at 1uM [%]
CN(C)CCCNC(=O)/C(=N\O)c1ccccc1 | 14
O=C(CCCn1c(SCC(=O)Nc2ccccc2C(F)(F)F)nc2ccccc2c1=O)NCC1CCCO1 (centres unmarked) | 8.07
CCn1c(/N=C/c2ccccc2O)nc2ccccc21 | 14.7
Cc1cc(C(=O)OC2CCOC2=O)c2ccccc2n1 (centres unmarked) | 9.38
Cc1[nH]nc2c1C(c1cc(Br)cs1)C(C#N)=C(N)O2 (centres unmarked) | 17.1
COc1ccccc1CNC(=O)C[n+]1ccccc1.[Cl-] | 7.69
COC(=O)c1c(C)[nH]c(C(=O)/C=C/c2ccccc2)c1C | 9.33
COc1ccc2nc(Nc3ccc4c(c3)OCO4)sc2c1 | -1.69
CN1CCN(S(=O)(=O)c2cc(C(F)(F)F)ccc2Cl)CC1.Cl | 11.3
CC(C)(C)C1CCC2(CC1)NC(CO)(CO)CO2 (centres unmarked) | 12
COc1ccc(NC(=O)NCCCCc2ccccc2)cc1 | 6.14
COc1ccc(-n2ncc(C(C)NS(=O)(=O)c3ccc(C)s3)c2C)cc1 (centres unmarked) | 7.28
COc1ccccc1CNC(=O)COC(=O)COc1ccccc1Cc1ccccc1 | 6.41
COc1ccc(/C=N/N=C2/NC(=O)C(CC(=O)O)S2)cc1OCc1ccc(Cl)cc1Cl (centres unmarked) | 15.3
CC(CN1CCN(C/C=C/c2ccccc2)CC1)c1ccccc1.O=C(O)C(=O)O (centres unmarked) | 6.85
Cc1cc2c(cc(C(=O)NCc3cccnc3)n2Cc2ccc(Cl)cc2)o1 | 15.2
Oc1ccc(Br)cc1-c1cc(-c2ccccc2)n[nH]1 | 3.3
COc1ccc(S(=O)(=O)NCc2ccccc2Cl)cc1OC | 8.41
CCc1cccc(CC)c1NC(=S)Nc1cccc(Cl)c1Cl | 12.7

Structure (SMILES) | hERG current change (%, negative = inhibition) at 1uM [%]
O=C(COc1ccc(F)cc1)N(Cc1cccs1)C1CCS(=O)(=O)C1 (centres unmarked) | -3.69
Cc1ccc(-n2c(=O)c(C#N)cc3c(=O)n4cccc(C)c4nc32)cc1 | 9.08
Cc1ccc(OCC(O)CNCc2ccccc2)cc1C (centres unmarked) | -4.05
COc1ccc(C(=O)Nc2ccccc2C(=O)N2CCOCC2)cc1OC | 21.1
COC(=O)C1=NNC2(c3ccc(Cl)cc3)C(=O)N(c3ccc(Cl)cc3)C(=O)C12 (centres unmarked) | 7.44
CCOc1ccc(OCCn2ccnc2)cc1 | 13.4
CCCCOc1ccc(C(O)(CCC)CCN2CCOCC2)cc1 (centres unmarked) | -11
C(=N/Nc1nc(-c2ccccc2)cc(-c2ccccc2)n1)/c1cccnc1 | 3.94
CC1(C)CC(=O)CC(=O)/C1=N\Nc1c(Cl)cc(Cl)cc1Cl | 8.05
CC(Cc1ccccc1)NC(=O)C(c1ccc(N)cc1)c1ccc(N)cc1 (centres unmarked) | 13.8
Cc1nc(N2CCOCC2)nc(N2CCC(C)CC2)c1[N+](=O)[O-] | 11.1
CCC(CO)Oc1cc(NCc2ccccc2F)c2ncn(C(C)C)c2c1 (centres unmarked) | -0.0644
COc1ccc(C(C(=O)NCC2CCCO2)N(C(=O)CNC(=O)c2cccs2)c2ccccc2)cc1OC (centres unmarked) | 13.5
CC(C)c1ccc(NC(=O)CN2C(=O)NC(Cc3c[nH]c4ccccc34)C2=O)cc1 (centres unmarked) | 1.92
O=C(CCC(=O)c1ccc(F)cc1)NN1C(=O)NC2(CCCCC2)C1=O | 9.28
Nc1c(NCCC2=CCCCC2)c(=O)[nH]c(=O)n1Cc1ccccc1 | 2.01
COCCCn1c(SCC(=O)N2CCCC(C)C2)nnc1-c1ccco1 (centres unmarked) | -15.2
COc1ccc(NC(=O)CN2C(=O)COc3ccc(S(=O)(=O)N4CCOCC4)cc32)cc1 | 10.6
O=C(NC1CC1)c1ccc2c(c1)S(=O)(=O)c1cc(Cl)ccc1C2=O | 6.63

Structure (SMILES) | hERG current change (%, negative = inhibition) at 1uM [%]
COC(=O)C[C@]1(C(=O)OC)CN(C#N)N(c2ccc(Cl)cc2)C12c1ccccc1-c1ccccc12 | 3.78
Cc1ccccc1SCC(=O)OCC(=O)Nc1sccc1C(N)=O | 9.21
CC(=O)C1=C(C)NC(=O)CC1c1ccc(Br)cc1 (centres unmarked) | 16.4
Fc1ccc(CNc2nc3ccccc3n3cnnc23)cc1 | 7.15
CCc1nnc(NC(=O)c2cc3ccccc3oc2=O)s1 | 14.8
COc1ccc(OC)c(S(=O)(=O)NCc2csc(-c3ccccc3)n2)c1 | 5.59
O=C(CCNS(=O)(=O)c1ccccc1F)N1CCN(S(=O)(=O)c2cccc(F)c2)CC1 | 10.4
CC(OC(=O)C1=COCCO1)C(=O)Nc1cc(S(=O)(=O)N2CCCCC2)ccc1Cl (centres unmarked) | 7.78
O=C(c1ccc(F)cc1F)N1CCCC(c2nc(-c3cccs3)no2)C1 (centres unmarked) | 12.3
CCOC(=O)c1ccc(Oc2c(C)oc3cc(OS(C)(=O)=O)ccc3c2=O)cc1 | -7.39
O=C(NCc1ccc(Cl)cc1)c1ccccc1CCc1ccccc1 | 1.45
O=C(COc1ccccc1)Nc1ccccc1C(=O)NC1CC1 | 7
Cc1ccc(S(=O)(=O)N2CCN(c3ccc([N+](=O)[O-])c(NCCN4CCOCC4)c3)CC2)cc1 | 9.41
O=c1c2c([nH]c3ccccc13)CCCC2 | 17.9
Cc1onc(-c2ccccc2Cl)c1C(=O)N(C)CC(=O)Nc1ccc(F)c(F)c1F | -4.97
COc1ccc(NC(=O)CN(c2cc(C)cc(C)c2)S(=O)(=O)c2c(C)noc2C)cc1OC | 9.9
O=C(Nc1cc(C(F)(F)F)ccc1Cl)c1cc2nc3c(c(C(F)(F)F)n2n1)CCCC3 | 12.3
CCC1(Cc2ccccc2)NC(=O)c2ccccc2O1 (centres unmarked) | 12.3
